# Measured values as given in PubChem BioAssay (NCATS).
# “And” between values parts separate entries of the source, which are not always exact repeats. Equal entries are not always repeated. This is one part of the list. Shown are side measurements of this screen, not its main read-out; they come without a call. Most of these compounds were active or inconclusive in the main read-out, so they are no random draw. The note in brackets gives the kind of curve behind each potency; many fits are weak.
# Assay: qHTS Assay for Lipid Storage Modulators (AID 1519)
# Details: Drosophila S3 cells, BODIPY lipid droplet/cell ratio, laser cytometry, cells loaded with oleic acid
# Summary of the method: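 Cells seeded at 5,000 per well were treated with compounds over a concentration series and loaded with oleic acid (400 uM, as added). Lipid droplet fluorescence (488 nm excitation, 500-530 nm channel) was read by laser-scanning cytometry and normalized to 20 uM Triacsin C.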
# [1] = measured here: cell count channel max response
# [2] = measured here: cell number channel AC50
# [3] = measured here: lipid (BODIPY) channel AC50
# [4] = measured here: lipid channel max response
# Tags tell the direction and shape of the fitted curve.
structure (smiles),measurement,setting,value
Cn1c(=O)c(-c2cc(F)cc(F)c2)nc2cnc(Nc3ccccc3)nc21,max response,[1],32.1%
same,AC50,[2],"2510 nM [rising, partial curve, poor fit]"
same,AC50,[3],"39800 nM [falling, single point]"
same,max response,[4],-107%
COc1ccc2[nH]cc(CCNc3ccnc(-c4ccccc4Cl)n3)c2c1,max response,[1],16.2%
same,AC50,[2],"631 nM [rising, full curve, poor fit]"
same,AC50,[3],"1780 nM [rising, partial curve]"
same,max response,[4],20.6%
COc1ccccc1N1CCN(CCN2C(=O)CC3(CCCC3)CC2=O)CC1,max response,[1],64.3% and 71%
same,AC50,[2],"15800 nM [rising, partial curve, poor fit]"
same,AC50,[3],"15800 nM [rising, partial curve]"
same,max response,[4],84.4% and 75.1%
Cn1c(=O)c(CCc2ccccc2)nc2cncnc21,max response,[1],26.1%
same,AC50,[2],"3160 nM [rising, partial curve]"
same,AC50,[3],"126 nM [rising, full curve]"
same,max response,[4],36.6%
c1ccc(CNc2ncnc3ccc(-c4ccoc4)cc23)cc1,max response,[1],32.1%
same,AC50,[2],"5620 nM [rising, full curve]"
same,AC50,[3],"7940 nM [rising, full curve]"
same,max response,[4],36.5%
C=CCN1CCN(c2nc3ccccc3nc2C#N)CC1,max response,[1],113%
same,AC50,[2],"15800 nM [rising, partial curve]"
same,AC50,[3],"17800 nM [rising, partial curve]"
same,max response,[4],153%
O=c1c(-c2ccccc2)nc2cnc(N3CCNCC3)nc2n1Cc1ccc(F)cc1,max response,[1],23.3%
same,AC50,[2],"10 nM [rising, full curve, poor fit]"
same,AC50,[3],"20 nM [rising, full curve, poor fit]"
same,max response,[4],31.7%
CCNc1ncc2nc(-c3cc(F)cc(F)c3)c(=O)n(Cc3cccs3)c2n1,max response,[1],13.4%
same,AC50,[2],"316 nM [rising, partial curve]"
same,AC50,[3],"794 nM [rising, partial curve]"
same,max response,[4],20.6%
CSC(=N)N,max response,[1],-6.77%
same,AC50,[2],"1260 nM [rising, full curve, poor fit]"
same,AC50,[3],"1260 nM [rising, full curve, poor fit]"
same,max response,[4],-11.1%
Cc1cccc(CNc2ncncc2-c2cccnc2)c1,max response,[1],13.9%
same,AC50,[2],"5.01 nM [rising, full curve, poor fit]"
same,AC50,[3],"3550 nM [rising, partial curve, poor fit]"
same,max response,[4],20%
COc1ccc(-n2c(=O)c(CCc3ccccc3)nc3cnc(N(C)C)nc32)cc1,max response,[1],22.2%
same,AC50,[2],"56.2 nM [rising, full curve, poor fit]"
same,AC50,[3],"35.5 nM [rising, full curve, poor fit]"
same,max response,[4],26.8%
C=C1C(=O)OC2C[C@@]3(C)CCCC(=C)[C@@H]3CC12 (stereo partly specified),max response,[1],51.9%
same,AC50,[2],"12600 nM [rising, full curve]"
same,AC50,[3],"12600 nM [rising, full curve]"
same,max response,[4],65.5%
CCN(Cc1ccncc1)C(=O)[C@@H](CO)c1ccccc1,max response,[1],51.1%
same,AC50,[2],"35500 nM [rising, single point]"
same,AC50,[3],"35500 nM [rising, single point]"
same,max response,[4],63.5%
Cc1ccc2oc(-c3ccccc3)c(O)c(=O)c2c1,max response,[1],78.8%
same,AC50,[2],"15800 nM [rising, partial curve]"
same,AC50,[3],"15800 nM [rising, partial curve]"
same,max response,[4],102%
COC(=O)C1C(O)CC[C@H]2CN3CCc4c([nH]c5ccccc45)C3C[C@H]12 (stereo partly specified),max response,[1],16.2%
same,AC50,[2],"3550 nM [rising, partial curve, poor fit]"
same,AC50,[3],"1580 nM [rising, full curve, poor fit]"
same,max response,[4],30.1%
N#Cc1ccccc1-c1ccc2ncnc(NCc3ccccc3)c2c1,max response,[1],-4.29%
same,AC50,[2],"2000 nM [rising, partial curve]"
same,AC50,[3],"1580 nM [rising, full curve]"
same,max response,[4],-6.22%
COCCn1c(=O)c(-c2ccc(Cl)cc2)nc2cnc(OC)nc21,max response,[1],31.5%
same,AC50,[2],"158 nM [rising, full curve, poor fit]"
same,AC50,[3],"79.4 nM [rising, full curve]"
same,max response,[4],46%
CC[C@@H](C)[C@H]1O[C@]2(CC[C@@H]1C)C[C@@H]1C[C@H](C/C=C(/C)[C@H](O[C@@H]3C[C@H](OC)[C@H](O[C@@H]4C[C@H](OC)[C@@H](O)[C@H](C)O4)[C@H](C)O3)[C@@H](C)/C=C\C=C3CO[C@@H]4[C@H](O)C(C)=C[C@@H](C(=O)O1)[C@]34O)O2 (tested in a mixture with another compound),max response,[1],-45.2%
same,AC50,[2],"3160 nM [rising, full curve, poor fit]"
same,AC50,[3],"2820 nM [rising, full curve, poor fit]"
same,max response,[4],-49.3%
COc1cc2ccc(=O)oc2cc1O,max response,[1],62.5%
same,AC50,[2],"31600 nM [rising, partial curve, poor fit]"
same,AC50,[3],"35500 nM [rising, partial curve, poor fit]"
same,max response,[4],78.7%
CN(Cc1ccco1)c1ccnc(-c2cccnc2)n1,max response,[1],39%
same,AC50,[2],"6310 nM [rising, full curve]"
same,AC50,[3],"4470 nM [rising, full curve]"
same,max response,[4],45.2%
COCCn1c(=O)c(-c2cn(C)c3ccccc23)nc2cncnc21,max response,[1],30.5%
same,AC50,[2],"355 nM [rising, full curve, poor fit]"
same,AC50,[3],"501 nM [rising, full curve]"
same,max response,[4],33.4%
c1cncc(-c2cncnc2NCc2cccs2)c1,max response,[1],35.3%
same,AC50,[2],"3550 nM [rising, full curve, poor fit]"
same,AC50,[3],"12600 nM [rising, partial curve]"
same,max response,[4],40.8%
CN1CCN(c2ncc3nc(-c4cn(C)c5ccccc45)c(=O)n(CCC#N)c3n2)CC1,max response,[1],16.4%
same,AC50,[2],"1580 nM [rising, partial curve, poor fit]"
same,AC50,[3],"1120 nM [rising, full curve, poor fit]"
same,max response,[4],18.2%
Cc1cnc(CNc2ccnc(-c3cccc(C#N)c3)n2)cn1,max response,[1],40.5%
same,AC50,[2],"1410 nM [rising, full curve]"
same,AC50,[3],"1410 nM [rising, full curve]"
same,max response,[4],48.1%
COc1ccc2[nH]cc(CCNc3ccnc(-c4c(C)noc4C)n3)c2c1,max response,[1],28.2%
same,AC50,[2],"89.1 nM [rising, full curve, poor fit]"
same,AC50,[3],"89.1 nM [rising, full curve, poor fit]"
same,max response,[4],32.5%
COCCn1c(=O)cnc2cnc(N3CCOCC3)nc21,max response,[1],39%
same,AC50,[2],"17800 nM [rising, partial curve]"
same,AC50,[3],"17800 nM [rising, partial curve]"
same,max response,[4],46.2%
COc1ccc(-c2nc3cnc(N(C)C)nc3n(CCC#N)c2=O)cc1,max response,[1],35.3%
same,AC50,[2],"4470 nM [rising, partial curve, poor fit]"
same,AC50,[3],"3980 nM [rising, partial curve]"
same,max response,[4],44.5%
CN(C)c1nc(-c2ccc3c(c2)OCO3)nc2ccccc12,max response,[1],16.2%
same,AC50,[2],"5.62 nM [rising, full curve, poor fit]"
same,AC50,[3],"6.31 nM [rising, full curve, poor fit]"
same,max response,[4],24.8%
c1ccc(Nc2ncncc2-c2ccoc2)cc1,max response,[1],16.8%
same,AC50,[2],"1410 nM [rising, full curve, poor fit]"
same,AC50,[3],"1260 nM [rising, full curve, poor fit]"
same,max response,[4],20.1%
COc1ccc(-c2nc3cnc(N(C)C)nc3n(CCc3ccccc3)c2=O)cc1,max response,[1],15.1%
same,AC50,[2],"224 nM [rising, full curve]"
same,AC50,[3],"178 nM [rising, full curve]"
same,max response,[4],17.5%
COc1ccccc1-c1nccc(N2CCN(C)CC2)n1,max response,[1],32.3%
same,AC50,[2],"5620 nM [rising, full curve]"
same,AC50,[3],"7080 nM [rising, full curve]"
same,max response,[4],36.6%
Clc1ccccc1-c1nc(NCc2cccs2)c2ccccc2n1,max response,[1],36.6%
same,AC50,[2],"2820 nM [rising, full curve]"
same,AC50,[3],"2510 nM [rising, full curve]"
same,max response,[4],45.6%
C=C(CO)C1Cc2c(ccc3c2OC2COc4cc(OC)c(OC)cc4C2C3=O)O1 (stereo unspecified),max response,[1],54.3%
same,AC50,[2],"501 nM [rising, full curve]"
same,AC50,[3],"794 nM [falling, full curve]"
same,max response,[4],-60.5%
COc1cccc(-c2nccc(NCCc3c[nH]c4ccc(OC)cc34)n2)c1,max response,[1],11%
same,AC50,[2],"1120 nM [rising, partial curve]"
same,AC50,[3],"794 nM [rising, full curve]"
same,max response,[4],13%
CC(C)=CCC/C(C)=C/COc1c2occc2cc2ccc(=O)oc12,max response,[1],88%
same,AC50,[2],"1580 nM [rising, full curve]"
same,AC50,[3],"1410 nM [rising, full curve]"
same,max response,[4],119%
CCC(C)(C)N=C(NC#N)Nc1cccnc1,max response,[1],39%
same,AC50,[2],"11200 nM [rising, partial curve, poor fit]"
same,AC50,[3],"14100 nM [rising, partial curve, poor fit]"
same,max response,[4],55.1%
COc1ncc2nc(-c3cn(C)c4ccccc34)c(=O)n(CCC#N)c2n1,max response,[1],25.7%
same,AC50,[2],"2000 nM [rising, partial curve]"
same,AC50,[3],"631 nM [rising, full curve, poor fit]"
same,max response,[4],31.1%
Cc1ccc(CC(Cc2nc3ccccc3[nH]2)c2nc3ccccc3[nH]2)cc1 (stereo unspecified),max response,[1],84.6%
same,AC50,[2],"2820 nM [rising, full curve]"
same,AC50,[3],"2240 nM [rising, full curve]"
same,max response,[4],105%
CCCCOC(=O)c1cc2c(cn1)[nH]c1ccccc12,max response,[1],38.4%
same,AC50,[2],"562 nM [rising, full curve, poor fit]"
same,AC50,[3],"631 nM [rising, full curve]"
same,max response,[4],46.2%
